The supplement of paper PMC10600219
Where a name gives a salt, the structure may show the parent alone. The full ranking holds about 2,800 compounds; the median of “cell viability relative to vehicle” is about 0.98, and the lowest 2% start at about 0.45. The list shows a part of the results.

tested on: NCI-H2228 alectinib-DTP; assay: cell viability relative to vehicle (fraction of vehicle); NCI-H2228 is an ALK-positive lung cancer line and DTP means drug-tolerant persister; higher = less growth inhibition; settings: 100 nM; treatment time 6 days
Procedure, shortened: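 Values give cell viability as a fraction of vehicle-treated cells. Parental and drug-tolerant persister NCI-H2228 cells (persisters made with 1000 nM of a targeted drug for 13 days) were exposed in 384-well plates to the 3114-agent TargetMol anti-cancer compound library at 100 nM, with DMSO as vehicle. ATP was then read after 6 days by the CellTiter-Glo 3D Cell Viability Assay.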

| SMILES | cell viability |
| --- | --- |
| COc1cc([C@@H]2c3cc4c(cc3[C@@H](O[C@@H]3O[C@@H]5CO[C@@H](c6cccs6)O[C@H]5[C@H](O)[C@H]3O)[C@H]3COC(=O)[C@H]23)OCO4)cc(OC)c1O [Teniposide] | 0.653 |
| COc1ccc(-c2coc3cc(O)ccc3c2=O)cc1O [Calycosin] | 1.01 |
| O=C1NC(=O)/C(=C/c2ccc3c(c2)OC(F)(F)O3)S1 | 1.03 |
| CC(=O)N1CCC2(CC1)c1cc(C#C[C@H]3O[C@H](CO)[C@@H](O)[C@H](O)[C@@H]3O)ccc1-c1ccc(C#C[C@H]3O[C@H](CO)[C@@H](O)[C@H](O)[C@@H]3O)cc12 [Antibiotic-202] | 1.07 |
| CN(C)CCCN1c2ccccc2Sc2ccc(Cl)cc21 [Chlorpromazine hydrochloride] | 1.05 |
| Nc1ccc(C(=O)Nc2cccc(-c3nc(N4CCOCC4)c4oc5ncccc5c4n3)c2)cn1 | 0.986 |
| O=C(O)c1c[nH]c2cc(Cl)c(-c3ccc(C4(O)CCC4)cc3)cc12 | 0.943 |
| O=c1ccc2ccccc2o1 [Coumarin] | 1.18 |
| Cc1nc(-c2cccnc2)sc1C(=O)Nc1ccccc1-c1cn2c(CN3CCOCC3)csc2n1 | 0.972 |
| Cc1[nH]c2ccccc2c1CCNCc1ccc(/C=C/C(=O)NO)cc1 [Panobinostat] | 0.22 |
| COc1ccnc(C[S+]([O-])c2nc3cc(OC(F)F)ccc3[nH]2)c1OC (stereo unspecified) [Pantoprazole sodium] | 0.918 |
| COc1ccnc(C[S+]([O-])c2nc3cc(OC(F)F)ccc3[nH]2)c1OC (stereo unspecified) [Pantoprazole Sodium Hydrate] | 1.03 |
| Cc1cc(C)c(S(=O)(=O)n2cc(C)cc2C)c(C)c1 | 1.12 |
| Nc1ncnc2c1ncn2C1CCCO1 (stereo unspecified) | 0.981 |
| Nc1ccn([C@@H]2O[C@H](CO)[C@@H](O)[C@@H]2O)c(=O)n1 [Cytarabine] | 0.825 |
| Nc1ccc(S(=O)(=O)Nc2ccccn2)cc1 [Sulfapyridine] | 1.23 |
| O=C(O)[C@H]1O[C@@H](Oc2cc3oc(-c4ccccc4)cc(=O)c3c(O)c2O)[C@H](O)[C@@H](O)[C@@H]1O [Baicalin] | 1.04 |
| Cn1cc(-c2ccncc2)c(-c2ccc(OCc3ccc4ccccc4n3)cc2)n1 | 1.07 |
| C=CC(=O)Nc1ccc(CN2C(=O)N(c3cc(OC)cc(OC)c3)Cc3cnc(Nc4ccc(N5CCN(C)CC5)cc4)nc32)cc1 | 0.753 |
| COc1ccc(C[C@@H]2c3cc(Oc4cc(C[C@@H]5c6cc(OC)c(OC)cc6CCN5C)ccc4O)c(OC)cc3CCN2C)cc1 [Neferine] | 1.2 |
| COC1CCN(C(=O)c2cc(Cc3n[nH]c(=O)c4ccccc34)ccc2F)CC1 | 0.874 |

| SMILES | cell viability |
| --- | --- |
| Oc1c(F)cc(-c2cnccc2-c2ccc(N3CCOCC3)cc2)cc1F | 0.915 |
| CCCCCCCCCCCCc1ccc(S(=O)(=O)Nc2nncs2)cc1 | 0.924 |
| OC(CCCN1CCCCC1)(c1ccccc1)c1ccccc1 [Diphenidol hydrochloride] | 0.938 |
| CCN(CC)CCOC(=O)C(c1ccccc1)c1ccccc1 [Adiphenine hydrochloride] | 1.08 |
| C[C@H]1[C@H](C)CC[C@]2(C(=O)O)CC[C@]3(C)C(=CC[C@@H]4[C@@]5(C)C[C@@H](O)[C@H](O)[C@@](C)(CO)[C@@H]5CC[C@]43C)[C@H]12 [Asiatic acid] | 1.01 |
| CC(CCc1ccccn1)(CCc1ccccn1)C(=O)c1ccccc1 [JAK2 Inhibitor V] | 1.03 |
| CCOC(=O)c1ccc(N)cc1 [Benzocaine] | 0.806 |
| CN1CCN(c2c(F)cc3c(=O)c(C(=O)O)cn4c3c2OCN4C)CC1 [Marbofloxacin] | 0.957 |
| Cc1ccc(S(=O)(=O)NC(=O)NN2CCCCCC2)cc1 [Tolazamide] | 0.958 |
| COC(=O)c1ccc([C@H]2c3[nH]c4ccccc4c3C[C@H](C(=O)OC)N2C(=O)CCl)cc1 | 0.0417 |
| C[C@]12CC[C@@H]3c4ccc(OS(=O)(=O)O)cc4CC[C@H]3[C@@H]1CCC2=O [Estropipate] | 1.08 |
| C=CC(C)(C)c1cc(/C=C/C(=O)c2ccc(O)cc2)c(OC)cc1O [Licochalcone A] | 1 |
| CC(=O)OCC1=CO[C@@H](OC(=O)CC(C)C)[C@H]2C1=C[C@H](OC(=O)CC(C)C)[C@]21CO1 [Valepotriate] | 1.19 |
| CC/C(=C(/c1ccc(/C=C/C(=O)O)cc1)c1ccc2[nH]ncc2c1)c1ccc(F)cc1Cl | 1.07 |
| COc1cc(C(C)=O)ccc1O [Acetovanillone] | 1.07 |
| CCCCCCCCCCCCCCCCOP(=O)([O-])OCC[N+](C)(C)C [Miltefosine] | 1.16 |
| CN(Cc1cnc2nc(N)nc(N)c2n1)c1ccc(C(=O)N[C@@H](CCC(=O)O)C(=O)O)cc1 [Methotrexate] | 0.68 |
| N[C@@H](Cc1ccc(O)cc1)C(=O)O [Tyrosine] | 1.23 |
| O=C(Nc1nccs1)C(c1cc(F)ccc1O)N1Cc2ccccc2C1=O (stereo unspecified) | 0.897 |
| Nc1cc(F)ccc1NC(=O)/C=C/c1cnn(C/C=C/c2ccccc2)c1 | 0.925 |
